Results taken from the supplement of paper PMC6746778.
Structures can show the parent of a compound that is named as a salt. This is one part of the list. Many values rest on one well or one pass, so single values are uncertain.

Legend:
Assay in all cases: proliferation Z-score within cell line (SRB, relative to all inhibitors screened on that line); triple-negative breast cancer lines and a kinase inhibitor library; SRB is the sulforhodamine B protein stain; higher = less growth inhibition (more resistant)
Conditions in all cases: concentration: 1 µM; 4 days
Bt20 = test system: Bt20
Bt549 = test system: Bt549
HCC1143 = test system: HCC1143
HCC1806 = test system: HCC1806
HCC1937 = test system: HCC1937
HCC38 = test system: HCC38
HCC70 = test system: HCC70
Hs578T = test system: Hs578T
MDA-MB-231 = test system: MDA-MB-231
MDA-MB-435s = test system: MDA-MB-435s
MDA-MB-436 = test system: MDA-MB-436
MDA-MB-453 = test system: MDA-MB-453
MDA-MB-468 = test system: MDA-MB-468
SKBR7 = test system: SKBR7
SUM1315MO2 = test system: SUM1315MO2
SUM149PT = test system: SUM149PT
SUM159PT = test system: SUM159PT
SUM185PE = test system: SUM185PE
SUM229PE = test system: SUM229PE
SUM52PE = test system: SUM52PE
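Also: Single-dose primary screen of a 378-member kinase inhibitor library in 96-well plates, with growth read as absorbance of protein-bound SRB dye after TCA fixation.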

Structure (SMILES)	proliferation Z-score within cell line (Bt20)	proliferation Z-score within cell line (Bt549)	proliferation Z-score within cell line (HCC1143)	proliferation Z-score within cell line (HCC1806)	proliferation Z-score within cell line (HCC1937)	proliferation Z-score within cell line (HCC38)	proliferation Z-score within cell line (HCC70)	proliferation Z-score within cell line (Hs578T)	proliferation Z-score within cell line (MDA-MB-231)	proliferation Z-score within cell line (MDA-MB-435s)	proliferation Z-score within cell line (MDA-MB-436)	proliferation Z-score within cell line (MDA-MB-453)	proliferation Z-score within cell line (MDA-MB-468)	proliferation Z-score within cell line (SKBR7)	proliferation Z-score within cell line (SUM1315MO2)	proliferation Z-score within cell line (SUM149PT)	proliferation Z-score within cell line (SUM159PT)	proliferation Z-score within cell line (SUM185PE)	proliferation Z-score within cell line (SUM229PE)	proliferation Z-score within cell line (SUM52PE)
CO[C@H]1C[C@@H]2CC[C@@H](C)[C@@](O)(O2)C(=O)C(=O)N2CCCC[C@H]2C(=O)O[C@H]([C@H](C)C[C@@H]2CC[C@@H](OCCO)[C@H](OC)C2)CC(=O)[C@H](C)/C=C(\C)[C@@H](O)[C@@H](OC)C(=O)[C@H](C)C[C@H](C)/C=C/C=C/C=C/1C [Everolimus (RAD001)]	-1.32	-2.06	-0.388	0.423	-1.27	-0.487	-1.35	-2.38	-0.705	-0.603	-1.39	-1.75	-0.676	-0.974	-0.952	-0.456	-0.704	-0.979	-0.97	-0.995
CCOc1cc2ncc(C#N)c(Nc3ccc(F)c(Cl)c3)c2cc1NC(=O)/C=C/CN(C)C [Pelitinib (EKB-569)]	-1.45	-0.296	-0.745	-1.61	-0.984	0.35	0.547	0.384	-1.13	-1.37	-0.81	-1.03	-1.63	0.373	-0.714	-1.93	0.653	0.0434	-1.56	-0.288
N#Cc1c(O)c2c(-c3ccc(-c4ccccc4O)cc3)csc2[nH]c1=O	0.863	0.86	0.943	0.945	0.833	0.633	0.796	0.772	0.981	1.02	1.18	1.15	1.05	0.92	1.3	1.11	0.588	1.11	1.03	1.21
C#Cc1cccc(Nc2ncnc3cc(OCCOC)c(OCCOC)cc23)c1 [Erlotinib HCl (OSI-744)]	-0.143	0.371	0.674	-1.09	0.874	0.421	0.767	0.316	0.804	0.693	0.922	0.944	-0.703	1.1	0.912	-0.646	0.478	0.657	-0.144	1.07
O=S(=O)(c1cccc2cnccc12)N1CCCNCC1 [Fasudil (HA-1077) HCl]	0.812	0.716	0.422	0.448	-0.00819	0.581	0.449	0.677	0.909	0.895	0.197	0.548	1.04	0.0956	0.83	0.612	0.365	0.582	0.78	1.32
Cc1csc(-c2nnc(Nc3ccc(Oc4ncccc4-c4ccnc(N)n4)cc3)c3ccccc23)c1	-0.167	-0.416	0.275	0.486	0.463	-0.242	-0.259	-0.252	-0.701	-0.0419	-0.246	-0.35	-1.43	-0.437	0.306	0.374	-0.168	0.513	0.0576	-0.478
C#Cc1cccc(Nc2ncnc3cc(OCCOC)c(OCCO)cc23)c1	-0.21	0.593	0.514	-1.38	0.561	0.402	0.612	0.373	0.704	0.768	0.613	0.607	-0.596	0.577	0.697	-0.492	0.464	0.972	-0.101	0.928
O=C(Nc1c[nH]nc1-c1nc2ccc(CN3CCOCC3)cc2[nH]1)NC1CC1	-1.11	-2.09	-0.994	-0.885	-1.19	-3.61	-1.43	-0.732	-1.03	-0.677	0.0696	-1.33	-1.82	-1.11	-0.954	0.95	0.115	-1.48	0.41	-1.17
Cc1[nH]nc2ccc(-c3cncc(OC[C@@H](N)Cc4ccccc4)c3)cc12	-1.23	-1.4	-0.827	-0.718	-1.42	-0.517	-1.39	-0.331	-1.19	-0.82	-1.58	-0.898	-1.48	-1.31	-0.121	-0.747	-0.593	-0.435	-0.434	-0.382
Cn1c(Nc2ccc(C(F)(F)F)cc2)nc2cc(Oc3ccnc(-c4ncc(C(F)(F)F)[nH]4)c3)ccc21	-0.383	-0.689	1	-0.492	0.792	0.603	0.599	-0.0347	-1.24	-1.7	0.503	0.263	-1.24	-0.457	-1.32	-0.458	0.645	0.28	-0.739	0.456
